Measurements published in the supplement of paper PMC4967469.

Columns and labels:
Assay in all cases: Viability of human cancer cell lines after 72 h of drug (GDSC screen)
Zibotentan = compound: COc1nc(C)cnc1NS(=O)(=O)c1cccnc1-c1ccc(-c2nnco2)cc1 [Zibotentan]; conditions: top dose 20 µM; top dose inferred
Procedure: (§1)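 Human cancer cell lines in 384-well plates, medium with 10% serum, drug for 72 h over a 256-fold dose range (nine 2-fold or five 4-fold steps up to the top dose). Adherent lines were fixed and stained with the nucleic acid dye Syto60, suspension lines read with resazurin; signal relative to control wells, capped at 0 and 100%. One two-parameter sigmoid per drug and line, fitted in a mixed model over all curves with the slope shared within a line.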

CP466722 = compound: COc1cc2ncnc(-n3nc(-c4ccccn4)nc3N)c2cc1OC [CP466722]; conditions: top dose 16 µM; top dose inferred
Procedure: as §1

ABT-869 = compound: Cc1ccc(F)c(NC(=O)Nc2ccc(-c3cccc4[nH]nc(N)c34)cc2)c1 [ABT-869]; conditions: top dose 1.024 µM; top dose inferred
Procedure: as §1

CHIR-99021 = compound: Cc1cnc(-c2cnc(NCCNc3ccc(C#N)cn3)nc2-c2ccc(Cl)cc2Cl)[nH]1 [CHIR-99021]
Procedure: as §1

GSK269962A = compound: CCn1c(-c2nonc2N)nc2cnc(Oc3cccc(NC(=O)c4ccc(OCCN5CCOCC5)cc4)c3)cc21 [GSK269962A]; conditions: top dose inferred
Procedure: as §1

CMK = compound: Cc1ccc(-c2c(C(=O)CCl)n(CCCO)c3ncnc(N)c23)cc1 [CMK]; conditions: top dose 4 µM; top dose inferred
Procedure: as §1

QL-X-138 = compound: C=CC(=O)Nc1cc(-n2c(=O)ccc3cnc4ccc(-c5cn[nH]c5)cc4c32)ccc1C [QL-X-138]; conditions: top dose 10.24 µM; top dose inferred
Procedure: as §1

MPS-1-IN-1 = compound: COc1cc(N2CCC(O)CC2)ccc1Nc1cc(Nc2ccccc2S(=O)(=O)C(C)C)c2cc[nH]c2n1 [MPS-1-IN-1]; conditions: top dose 20 µM; top dose inferred
Procedure: as §1

Thapsigargin = compound: C/C=C(/C)C(=O)O[C@H]1C(C)=C2[C@H]([C@@H]1OC(=O)CCCCCCC)[C@@](C)(OC(C)=O)C[C@H](OC(=O)CCC)[C@@]1(O)[C@H]2OC(=O)[C@@]1(C)O [Thapsigargin]; conditions: top dose 0.512 µM; top dose inferred
Procedure: as §1

(5Z)-7-Oxozeaenol = compound: COc1cc(O)c2c(c1)/C=C/C[C@H](O)[C@H](O)C(=O)/C=C\C[C@H](C)OC2=O [(5Z)-7-Oxozeaenol]; conditions: top dose 10 µM; top dose inferred
Procedure: as §1

[1] = top dose 2.56 µM, screen: GDSC drug entry 154
[2] = top dose 2.5 µM, screen: GDSC drug entry 127
[3] = top dose 10 µM, screen: GDSC drug entry 1241, top dose inferred
[4] = top dose 5 µM, screen: GDSC drug entry 1192

Row | Cell Line | AUC (Zibotentan) | IC50 (Zibotentan) [nM] | AUC (CP466722) | IC50 (CP466722) [nM] | AUC (ABT-869) | IC50 (ABT-869) [nM] | AUC (CHIR-99021; [1]) | IC50 (CHIR-99021; [1]) [nM] | AUC (GSK269962A; [2]) | IC50 (GSK269962A; [2]) [nM] | AUC (CMK) | IC50 (CMK) [nM] | AUC (QL-X-138) | IC50 (QL-X-138) [nM] | AUC (MPS-1-IN-1) | IC50 (MPS-1-IN-1) [nM] | AUC (Thapsigargin) | IC50 (Thapsigargin) [nM] | AUC (CHIR-99021; [3]) | IC50 (CHIR-99021; [3]) [nM] | AUC (GSK269962A; [4]) | IC50 (GSK269962A; [4]) [nM] | AUC ((5Z)-7-Oxozeaenol) | IC50 ((5Z)-7-Oxozeaenol) [nM]
1 | BC-3 (B-cell lymphoma, suspension) | 0.975 | > 20000 | 0.712 | 3680 | 0.986 | > 1020 | 0.989 | > 2560 | 0.938 | > 2500 | 0.952 | > 4000 | 0.551 | 865 | 0.833 | 11000 | 0.203 | 4.83 | – | – | – | – | – | –
2 | CAL-148 (breast, suspension) | 0.99 | > 20000 | 0.949 | > 16000 | 0.988 | > 1020 | 0.99 | > 2560 | 0.967 | > 2500 | 0.956 | > 4000 | 0.716 | 2470 | 0.944 | > 20000 | 0.91 | > 512 | – | – | – | – | – | –
3 | COLO-829 (melanoma, adherent) | 0.979 | > 20000 | 0.889 | > 16000 | 0.968 | > 1020 | 0.695 | 741 | 0.793 | 1810 | 0.976 | > 4000 | 0.747 | 4730 | 0.874 | > 20000 | 0.427 | 18.4 | 0.892 | > 10000 | 0.974 | > 5000 | 0.699 | 2990
4 | CP67-MEL (melanoma, adherent) | – | – | – | – | – | – | – | – | – | – | 0.922 | > 4000 | – | – | – | – | – | – | – | – | – | – | – | –
5 | EW-12 (Ewing sarcoma, suspension) | – | – | – | – | – | – | – | – | 0.929 | > 2500 | 0.97 | > 4000 | – | – | – | – | – | – | – | – | – | – | – | –
6 | HCC1599 (breast, suspension) | 0.981 | > 20000 | 0.754 | 6110 | 0.982 | > 1020 | 0.977 | > 2560 | 0.949 | > 2500 | 0.774 | 1810 | 0.525 | 754 | 0.837 | 16200 | 0.69 | 118 | – | – | – | – | – | –
7 | HCC-33 (small cell lung carcinoma, adherent) | 0.983 | > 20000 | 0.85 | 12400 | 0.982 | > 1020 | 0.985 | > 2560 | 0.916 | > 2500 | 0.965 | > 4000 | 0.519 | 722 | 0.914 | > 20000 | 0.344 | 11.8 | – | – | – | – | – | –
8 | HCE-4 (oesophagus, adherent) | 0.992 | > 20000 | 0.919 | > 16000 | 0.988 | > 1020 | 0.992 | > 2560 | – | – | 0.891 | 3480 | 0.992 | > 10200 | 0.992 | > 20000 | 0.217 | 5.57 | 0.991 | > 10000 | 0.859 | 3230 | 0.599 | 1120
9 | HEL (acute myeloid leukaemia, semi-adherent) | 0.981 | > 20000 | 0.646 | 2340 | 0.991 | > 1020 | 0.969 | > 2560 | 0.936 | > 2500 | 0.943 | > 4000 | 0.695 | 2020 | 0.868 | 13300 | 0.562 | 45.8 | 0.852 | 5800 | 0.96 | > 5000 | 0.738 | 2580
10 | Hs-445 (Hodgkin lymphoma, suspension) | 0.988 | > 20000 | 0.685 | 3150 | 0.982 | > 1020 | 0.989 | > 2560 | 0.975 | > 2500 | 0.96 | > 4000 | 0.653 | 1640 | 0.88 | 18100 | 0.989 | > 512 | 0.988 | > 10000 | 0.963 | > 5000 | 0.62 | 1300
11 | IST-MES1 (mesothelioma, adherent) | 0.985 | > 20000 | 0.9 | > 16000 | 0.977 | > 1020 | 0.934 | > 2560 | 0.981 | > 2500 | 0.862 | 3460 | 0.936 | > 10200 | 0.943 | > 20000 | 0.635 | 76 | 0.864 | 8840 | 0.924 | > 5000 | 0.743 | 3130
12 | K-562 (chronic myeloid leukaemia, suspension) | – | – | 0.73 | 4400 | – | – | – | – | 0.954 | > 2500 | 0.844 | 2730 | 0.625 | 1400 | 0.917 | > 20000 | 0.777 | 198 | – | – | 0.909 | > 5000 | 0.678 | 1930
13 | KALS-1 (glioma, adherent) | 0.973 | > 20000 | 0.977 | > 16000 | 0.969 | > 1020 | 0.96 | > 2560 | 0.936 | > 2500 | 0.822 | 3560 | 0.673 | 2340 | 0.955 | > 20000 | 0.264 | 5.18 | 0.888 | > 10000 | 0.913 | > 5000 | 0.693 | 2680

The IC50 comes from the fitted curve, where viability falls to half of the control; fits outside the tested doses are given as limits. AUC, from the same fit, is the share of area under the viability curve across the 256-fold dose range: 1 means no effect, lower means more sensitive. Any top dose called inferred was derived from the fitted curves, not read from the paper. For some assays here: Where an entry number is given, a second screen of the drug exists; the two often differ.
